# Data: PubChem BioAssay AID1347430 (National Center for Advancing Translational Sciences (NCATS), 2020)
# Hit rate of the full screen: of about 91,000 compounds, about 130 (0.14%) were called active. Inconclusive means that the source gave no clear call. Such entries were picked first, then a sample of the others. The call rests on the fitted dose curve; in most records, active means well fitted inhibition curve with a large enough effect; inconclusive means small, poorly fitted or top-dose-only effect; inactive means flat fitted curve, though single readings scatter. A potency beside an inconclusive call is a rough fit, not a confirmed value.
# Tested on: Uracil-DNA glycosylase
# Assay: Primary qHTS assay for inhibitors of Activation Induced Cytidine Deaminase (AID): UDG Counterscreen signal; further: nearly all actives have a fitted effect of over 65% in size
# Conditions: FRET deamination/UDG coupled assay, UDG read, 4 h; activity change, negative = inhibition: at 115 µM (top of the series)
# From the text: Assay Provider (PI) Patricia Gearhart Ph.D.
# National Institute on Aging
# National Institute of Health (NIH), Bethesda, MD
# Assay Provider (PI) Rahul Kohli Ph.D.
# Perelman School of Medicine
# University of Pennsylvania, Philadelphia, PA
# Activation-Induced Deaminase (AID) is a cytosine deaminase which converts cytosine into uracil within stretches of ssDNA. The presence of uracil in DNA initiates a cascade of mutagenic DNA repair to introduce point mutations and DNA double strand breaks. Specific targeting of AID to the immunoglobulin heavy chain loci (Igh) promotes mutagenesis in the antibody variable region for somatic hypermutation (SHM) or switch regions leading to class switch recombination (CSR). However, AID also plays a role in accumulating unnecessary mutations across the genome. Mis-targeting of AID results in the initiation of tumor development and leads to greater drug resistance among cancer cells when continually expressed. To identify an AID inhibitor, a small molecule library will be screened in collaboration with NCATS core facility at NIH. To confirm biological function, inhibitors will be examined in an in vitro murine B-cell activation assay and subsequent secondary validation screens. Top molecules will be further screened to identify inhibitory efficacy against a wild type primary splenocytes assay. Using these approaches, we hope to identify a small molecule with great efficacy and low toxicity for use as a molecular probe to further characterize AID's intricacies, or even as a therapeutic.
# A FRET based analysis of cytosine deamination, was developed to identify potential inhibitors of AID catalytic activity. This screen has two signal output, Read 1 evaluates the AID inhibition response. The second readout (Read 2) evaluates UDG response and is uses as a counterscreen to exclude false positive inhibitors. Inhibition in AID and inactivity in the UDG signal is the desired outcome for this assay.
# SEQUENCE No. (e.g., 1, 2, 3, etc.); […] (e.g., Cells, Incubation, Reagent, etc.); VALUE; DESCRIPTION
# 1a; Reagent; 3 uL; [4/3x] 1 uM AID/2.67 U/mL UDG
# 1b; Reagent; 3 uL; 2 U/mL UDG
# 1c; Reagent; 3 uL; 1 uM AID
# 2a; Compound; 46 nL; Follow-up plates (0.64 uM - 10 mM)
# 2b; Control; 46 nL; ATA ([…] - 10 mM)
# 3; Time; 10 min; incubation at room temperature
# 5; Time; 4 hr; incubation at room temperature
# 6; Reagent; 4 uL; [2x] 250 mM NaOH
# 7; Time; 15 sec; centrifuge at 1000 rpm
# 8; Time; 30 min; incubation at room temperature
# 9a; Detection; fluorescence (Read 1: AID); EnVision (PerkinElmer) plate reader, 540 excitation and 590 emission filters
# 9b; Detection; fluorescence (Read 2: UDG); EnVision (PerkinElmer) plate reader, 560 excitation and 665 emission filters
# NOTES (numbers refer to sequence above)
# 1a; Reagents were dispensed in a medium-binding black solid-bottom Greiner plates (789176F) using a BioRptr liquid dispenser. Dispense 3 uL of [4/3x] 1 uM AID (provided by Kohli lab) and [4/3x] 2 U/mL UDG (NEB M0280L) into columns 1, 2, 5 to 48.
# 1b; Dispense 3 uL of [4/3x] 2 U/mL UDG into column 3.
# 1c; Dispense 3 uL of [4/3x] 1 uM AID into column 4.
# 2a; Compound (7-points [uM] (0.64; 3.2; 16; 80; 400; 2,000; 10,000; 20,000) double pin-transferred (Dip Factor = 2) using the Kalypsys (Wako USA) pintool equipped with a 1536 pinhead for a final concentration range of 7.32 nM - 114 uM.
# 2b; 10 mM Aurintricarboxylic Acid (Sigma A1895) (ATA, 8-point, n = 2, 1:2.5 dilution in column 2) double pin-transferred (Dip Factor = 2) using the Kalypsys (Wako USA) pintool equipped with a 1536 pinhead for a [final] range of 186 nM - 114 uM.
# 3; Room temperature incubation.
# 4; Dispense 1 uL of substrate mixture from the Kohli lab [4x] […] DJC20 and [4x] 250 nM DJC23 into columns 1 to 48 .
# 5; Room temperature incubation.
# 6; Dispense 4 uL of substrate mixture [2x] 250 mM NaOH into columns 1 to 48.
# 7; Centrifugation step to remove bubbles.
# 8; Room temperature incubation
# 9a; Fluorescence signal (column label AID) was read using the EnVision plate reader. […]
# On the % scale 0 is the no-effect control and ±100 the full control effect; potency means the concentration at half of the fitted maximal effect; tags describe the fitted curve by direction and shape.
SMILES,"activity change, negative = inhibition",Potency
CCN(CC)C(=O)CSc1nc(N2CCCC2)c2c(c1C#N)CCCC2,inactive: 8.81%,
CCCCOc1cc(O)c2c(=O)cc(-c3ccccc3)oc2c1,,"inconclusive: 89.1 µM [inhibitor, single point]"
CC(Nc1ccc(-c2nc(-c3ccccn3)no2)cc1[N+](=O)[O-])c1ccccc1 (centres undefined),,"inconclusive: 89.1 µM [inhibitor, single point]"
C=C(CS(=O)(=O)c1ccc(C)cc1)S(=O)(=O)c1ccc(C)cc1,inactive: -4.39%,
COc1ccc(Nc2nc(N)nc(CSc3nc4cc(OC)ccc4s3)n2)cc1,,"inconclusive: 89.1 µM [inhibitor, partial curve, poor fit]"
CCCN(CCC)CC(O)Cn1cc(/C=C/C(=O)c2ccc(OCC)cc2)c2ccccc21 (centres undefined),inactive: -23.7%,
CCC(CC)C(=O)Nc1ccc2nc(SCC(=O)N3c4ccccc4CC3C)sc2c1 (centres undefined),,"inconclusive: 70.8 µM [inhibitor, single point]"
CC1CCCC(NC(=O)c2cc(Sc3cccc(Cl)c3)nc3ccccc23)C1C (centres undefined),inactive: -7.07%,
COc1cccc(N(CC(=O)N2CCC(C)CC2)S(=O)(=O)c2ccc(C)cc2)c1,,"inconclusive: 89.1 µM [inhibitor, single point]"
Cn1c(=O)c2c(-c3ccccc3Br)n(CCc3ccccc3)cc2n(C)c1=O,,"inconclusive: 89.1 µM [inhibitor, single point]"
CCOC(=O)c1c(-c2ccccc2)oc2ccc(NS(=O)(=O)c3ccc(C(C)C)cc3)cc12,,"inconclusive: 100 µM [inhibitor, single point]"
COc1ccccc1NC(=O)c1c(NC(=O)c2ccccc2Cl)sc2c1CCC2,,"inconclusive: 89.1 µM [inhibitor, single point]"
CSc1ccccc1C(=O)Nc1ccc(C(C)C)cc1,inactive: -1.64%,
COc1cccc(OC(=O)CSc2nnc(-c3ccc4c(c3)OCO4)o2)c1,,"inconclusive: 89.1 µM [inhibitor, single point]"
CCc1ccc2c(c1)NC(c1ccc(OC)cc1)=NC(c1ccncc1)=N2,,active: 89.1 µM
CCCCOc1ccc(Cn2c(=O)sc3ccccc32)cc1,,"inconclusive: 14.1 µM [inhibitor, partial curve, poor fit]"
CCOCCCNc1nc2cc(OC)c(OC)cc2c2nc(-c3ccccc3)nn12,,"inconclusive: 89.1 µM [inhibitor, partial curve, poor fit]"

SMILES,"activity change, negative = inhibition",Potency
COc1cc2nc(NCc3ccccc3)n3nc(-c4ccccc4)nc3c2cc1OC,,"inconclusive: 100 µM [inhibitor, single point]"
O=C(Nc1cccc(Br)c1)c1cc(-c2ccc3c(c2)OCCO3)on1,,"inconclusive: 100 µM [inhibitor, single point]"
Cc1ccc(NS(=O)(=O)c2cc([N+](=O)[O-])ccc2N/N=C/c2ccccc2)c(C)c1,inactive: -2.05%,
CC(O)CNc1nc2c(c(=O)n(C)c(=O)n2C)n1Cc1ccccc1 (centres undefined),inactive: -8.22%,
Cc1ccc2c(c1)N(CC(=O)NCCCN1CCCCC1C)C(=O)c1cccnc1O2 (centres undefined),,"inconclusive: 100 µM [inhibitor, single point]"
CCCCC(=O)Nc1ccc(-c2nc(-c3ccccc3)co2)cc1,,"inconclusive: 89.1 µM [inhibitor, single point]"
Cc1ccc(-n2nc3c(=O)n(CC(=O)NCc4ccco4)nc(C)c3c2C)cc1,,"inconclusive: 89.1 µM [inhibitor, single point]"
COc1ccc2c(C)c(CC(=O)NCCCn3ccnc3)c(=O)oc2c1C,inactive: -8.43%,
Cc1cc(C)c2sc(N3CCN(C(=O)C4CC4)CC3)nc2c1,,"inconclusive: 100 µM [inhibitor, single point]"
CCOC(=O)c1ccc(NC(=O)CC2C(=O)N(c3ccc(F)cc3)C(=O)N2Cc2ccc(C)cc2)cc1 (centres undefined),,"inconclusive: 79.4 µM [inhibitor, single point]"
COc1ccc(Nc2cc(C(=O)NCCCN(C)Cc3ccccc3)c3ccccc3n2)cc1,inactive: -13.4% [at 57.5 µM],
O=C(O)C(Sc1ccc2ccccc2n1)c1ccccc1 (centres undefined),inactive: 6.61%,
Cc1cc(-c2ccc(N=Cc3cccc(Cl)c3)c(C)c2)ccc1N=Cc1cccc(Cl)c1,,"inconclusive: 56.2 µM [inhibitor, partial curve, poor fit]"
Cc1cccc(C)c1NC(=O)CCS(=O)(=O)c1cccc2nonc12,,"inconclusive: 89.1 µM [inhibitor, single point]"
CC(=O)c1cc(-c2ccc(F)cc2)n(CC(=O)NC2CCCCCC2)c1C,,"inconclusive: 100 µM [inhibitor, single point]"
O=C(COC(=O)c1ccc2ncsc2c1)c1ccc2c(c1)OCCCO2,inactive: -9.76%,
Cc1ccc(NC(=O)C2CCN(S(=O)(=O)c3cccs3)CC2)cc1,,"inconclusive: 70.8 µM [inhibitor, single point]"
